Experimental data: publication PMC4336329 (PLoS ONE, 2015)
Screen size: about 310,000 compounds; about 2,200 (0.71%) showed an effect of 50% or more. The effect is printed as a negative number. The list shows a part of the results.

target: human ether-à-go-go-related gene (hERG) potassium channel (human, UniProt Q12809); assay: primary screen, population patch clamp on CHO cells stably expressing hERG
Sequence (Q12809 whole entry, looked up): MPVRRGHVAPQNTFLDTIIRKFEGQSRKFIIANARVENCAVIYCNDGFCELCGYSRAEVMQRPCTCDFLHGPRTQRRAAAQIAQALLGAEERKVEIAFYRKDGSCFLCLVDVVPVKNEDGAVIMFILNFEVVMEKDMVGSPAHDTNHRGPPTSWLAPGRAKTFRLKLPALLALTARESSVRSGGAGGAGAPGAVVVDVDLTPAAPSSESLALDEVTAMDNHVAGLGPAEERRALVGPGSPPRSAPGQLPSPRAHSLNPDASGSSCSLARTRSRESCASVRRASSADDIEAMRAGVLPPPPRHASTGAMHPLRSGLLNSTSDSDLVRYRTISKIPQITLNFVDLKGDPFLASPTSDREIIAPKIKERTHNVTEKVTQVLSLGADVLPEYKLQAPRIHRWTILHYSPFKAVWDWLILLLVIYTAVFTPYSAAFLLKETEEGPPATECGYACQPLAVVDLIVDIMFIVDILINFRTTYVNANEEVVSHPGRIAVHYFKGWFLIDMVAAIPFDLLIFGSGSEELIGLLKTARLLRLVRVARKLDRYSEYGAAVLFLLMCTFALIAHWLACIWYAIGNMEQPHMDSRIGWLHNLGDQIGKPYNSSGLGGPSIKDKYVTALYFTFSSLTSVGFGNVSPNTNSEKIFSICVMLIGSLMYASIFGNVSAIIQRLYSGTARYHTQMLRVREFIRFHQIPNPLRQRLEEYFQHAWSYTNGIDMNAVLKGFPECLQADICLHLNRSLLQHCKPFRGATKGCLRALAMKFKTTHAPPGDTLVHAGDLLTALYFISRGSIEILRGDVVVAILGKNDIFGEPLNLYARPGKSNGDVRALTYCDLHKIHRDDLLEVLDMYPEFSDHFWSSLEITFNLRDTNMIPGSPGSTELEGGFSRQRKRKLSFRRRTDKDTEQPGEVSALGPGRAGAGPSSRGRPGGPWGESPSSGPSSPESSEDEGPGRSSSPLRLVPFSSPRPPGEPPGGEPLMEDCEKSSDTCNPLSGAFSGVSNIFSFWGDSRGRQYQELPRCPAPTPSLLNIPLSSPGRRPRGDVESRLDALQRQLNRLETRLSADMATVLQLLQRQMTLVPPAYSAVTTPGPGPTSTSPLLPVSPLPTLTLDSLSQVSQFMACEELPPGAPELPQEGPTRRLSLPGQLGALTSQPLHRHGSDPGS

Structure (SMILES)	hERG current change (%, negative = inhibition) at 1uM
Cc1cc(/C=C(\C#N)C(=O)Nc2ccccc2F)c(C)[nH]1	22.7%
COc1ccc(/C=N/Nc2nc3ccccc3o2)cc1O	6.35%
NS(=O)(=O)c1cccnc1Nc1cccc(Cl)c1	10.5%
CSc1nc(-c2ccccc2)cc(C(F)(F)F)c1C#N	-0.616%
CSc1ccc(C(=O)C2CCCN(Cc3cccn3-c3cccnc3)C2)cc1 (stereo not drawn)	6.9%
CCC(C)(C)NC(=O)c1ccc2c(c1)S(=O)(=O)c1ccccc1C2=O	1.48%
CCc1ccc2c(c1)Sc1ccccc1CC2N1CCN(C)CC1.CS(=O)(=O)O.O (stereo not drawn)	2.55%
COc1ccc(C2/C=C\CN(C(=O)c3ccccc3)[C@H](Cc3ccccc3)C(=O)N2Cc2ccc(F)cc2)cc1 (stereo partly drawn)	13.4%
CC(=O)NC12CC3CC(C)(C1)CC(NC(C)=O)(C3)C2	-1.85%
O=C(NCc1ccc(F)cc1)C1CCCN1C(=O)Nc1ccc(F)cc1 (stereo not drawn)	14.3%
Cc1ccc(NC(=O)CN(C)C(=O)COc2cc(F)ccc2[N+](=O)[O-])cc1	18%
CC(C)(C)C(=O)Nc1ccc(-c2cc3cc(Cl)ccc3o2)cc1	14.1%
O=C(NC(=O)c1ccc(Cl)c(Cl)c1)OC1CCS(=O)(=O)C1 (stereo not drawn)	3.79%
COC(=O)C1CCCN1S(=O)(=O)c1ccc([N+](=O)[O-])cc1 (stereo not drawn)	10.7%
O=C(c1ccco1)N1CCN(Cc2nnc(-c3ccccc3F)o2)CC1	12.1%
CCCC(=O)C1=C(SCC)CC(C)(C)C(C(=O)OC)C1=O (stereo not drawn)	-6.26%
CCC(=O)c1ccc(N2CCC(C)CC2)c(F)c1	12.9%
O=C1C2C3C=CC(C4CC34)C2C(=O)N1/N=C/c1ccc(-c2ccccc2[N+](=O)[O-])o1 (stereo not drawn)	-8.71%
CCc1noc(C)c1C(=O)N1CCCSC1=Nc1ccccc1OC	5.25%
Cc1cc(/C=C2/C(=O)NN(c3ccccc3)C2=O)c(C)n1-c1cccc(O)c1	11.9%
COCc1cc(SC2CCCCC2)nc(C)n1	9.18%
COc1ccc(NC(=O)c2cn(CCC#N)nc2-c2cccs2)cc1	0.166%
CCOC(=O)c1cc([N+](=O)[O-])sc1N	9.33%

Structure (SMILES)	hERG current change (%, negative = inhibition) at 1uM
Cc1nn(C)cc1C1Nc2ccccc2C(=O)N1O (stereo not drawn)	16.7%
CCC(C)c1ccc(NC(=O)CSc2nncn2N)cc1 (stereo not drawn)	-25.7%
Cc1cccc(NC(=O)CCN2C(=O)C3C4CCC(C4)C3C2=O)c1C (stereo not drawn)	1.65%
Cc1cc(NC(=O)c2ccc(NC(=O)C3CCCO3)cc2)ccc1Br (stereo not drawn)	12.1%
CC(C)(C)c1ccccc1NC(=S)NC1CCCC1	0.305%
O=C(O)c1cc(NN=C2CCN(Cc3ccccc3)CC2)ccc1Cl	10.1%
Cc1cccc2nc(-c3ccco3)c(Nc3ccc4c(c3)OCCO4)n12	11.4%
O=C(Nc1ccccc1)Nc1n[nH]c2nnc(-c3ccccc3)c(-c3ccccc3)c12	3.62%
CCOC(=O)N1CCN(c2nc3c(C)cccn3c(=O)c2C=O)CC1	5.71%
COC(=O)C(=Cc1ccc(OCc2ccc([N+](=O)[O-])cc2)c(OC)c1)C(=O)OC	4.47%
COc1ccc(C2(C(=O)Nc3ccc(C(=O)O)cc3)CCOCC2)cc1	8.06%
CCOc1ccc(OCCN2C(=O)NC(Cc3c[nH]c4ccccc34)C2=O)cc1 (stereo not drawn)	13.1%
CC(Sc1nc2c(c(=O)[nH]1)CCCC2)C(=O)Nc1ccc(S(N)(=O)=O)cc1 (stereo not drawn)	15.8%
COC(=O)N1C(=O)[C@@](c2ccc(OC)cc2)(C(C)C)N1C(=O)OC	16.3%
Cn1cc(CN2CCCC(C(=O)c3cccs3)C2)c(-c2cccc(Cl)c2)n1 (stereo not drawn)	2.71%
Cc1cc2nc3c(nc2cc1C)C1(C(=O)N(C)C)CCC3(C)C1(C)C (stereo not drawn)	3.85%
O=C(CN1CCCCCCC1)N/N=C/c1ccc(F)cc1F	-17.6%
O=C(O)c1cccc2c1C(=O)c1ccc(-c3ccc(F)cc3F)cc1S2(=O)=O	10.2%
Cc1ccc(C)c(N(CC(=O)NC2CCCC2)C(=O)CCC(=O)Nc2nccs2)c1	1.21%
C=CCNC(=O)c1ccccc1NC(=O)COc1ccc(OC)cc1	11.4%
CCOc1ccc(NC(C)=O)cc1N	7.3%
CCC(C)Sc1nc2c(c(=O)[nH]c(=O)n2C)n1Cc1ccccc1Cl (stereo not drawn)	14.3%
CCN1CCN(C(=O)C(C)Oc2ccc(S(=O)(=O)N3CCCC3)cc2C(N)=O)CC1 (stereo not drawn)	1.4%

Structure (SMILES)	hERG current change (%, negative = inhibition) at 1uM
C[C@@H](C(=O)CC(=O)OC(C)(C)C)[C@@H](O)c1c(F)cccc1Cl	10.1%
CC(NCc1ccc2c(c1)OCO2)C(=O)NC1CCCc2ccccc21.O=C(O)C(=O)O (stereo not drawn)	-10.7%
COc1ccc(CNC(=O)CSc2nnc(-c3ccc(NC(C)=O)cc3)n2C)cc1	1.67%
Cc1cc(C)cc(NC(=O)CN2C(=O)c3ccccc3C2=O)c1	0.538%
CC(=O)N(Cc1cc(=O)[nH]c2ccccc12)c1ccccc1C	12.1%
CSc1nc2ccc(NC(=O)c3ccco3)cc2s1	7.01%
Cc1cc(C)nc(NC(=O)c2cc3ccccc3o2)n1	11%
Cc1cc(C)nc(NC(=O)/C=C/c2cccs2)c1	3.4%
COc1ccc(Cc2nc3ccc(C(=O)NCCc4ccccn4)cc3o2)cc1OC	3.48%
On1nnc2c3ccccc3c3ccccc3c21	16.8%
Cc1ccnc2nc(NC(=O)c3ccco3)nn12	19.3%
COc1ccccc1NC(=O)Nc1nc(CC(=O)NCc2c(F)cccc2F)cs1	13.1%
CCN(CC)CCNC(=O)C1CCC(=O)N1CCc1ccccc1 (stereo not drawn)	7.89%
COC(=O)c1ccccc1N=Nc1c(C)n[nH]c1C	7.54%
CCN(CC)CCCNC(=O)C1c2ccccc2C(=O)N(C)C1c1ccc(OC)cc1 (stereo not drawn)	8.24%
CCc1nnc(NC(=O)CCN2C(=O)CCC2=O)s1	8.52%
COc1cc(C2=NOC(C(=O)N3CCOCC3)C2)cc(OC)c1OC (stereo not drawn)	5.41%
COc1ccc(NC(=O)C2CCCCN2S(=O)(=O)c2ccc(F)cc2)cc1 (stereo not drawn)	3.66%
O=C(Nc1cc(Sc2nc3ccccc3s2)cc([N+](=O)[O-])c1)c1ccccc1	12.4%
Cc1ccc2c(c1)c(=O)c(Br)c(C)n2Cc1ccccc1	7.08%
Nc1ccccc1C(=O)NCCCN1CCOCC1	4.35%
CC(=O)Nc1ccc(OCc2ccc3c(c2)OCO3)cc1	5.52%
CCCn1c(=NC(=O)c2c(-c3c(F)cccc3Cl)noc2C)c(C(=O)OCC)cc2c(=O)n3ccccc3nc21	4.2%

Structure (SMILES)	hERG current change (%, negative = inhibition) at 1uM
O=C(Nc1ccccc1C(=O)NCCCN1CCOCC1)c1ccc(F)cc1F	11.8%
COc1ccc(NC(=S)N(C(C)C)C2CCN(C(C)C)CC2)cc1Cl	10.9%
O=C(O)C1C2C=CC(C2)C1C(=O)Nc1nccs1 (stereo not drawn)	16.2%
COC(=O)CNC(=O)CSc1nc2sccc2c(=O)n1-c1ccccc1	9.01%
O=C(COc1ccc(/C=N/NC(=O)c2cccnc2)cc1)Nc1ccccc1	8.85%
Cc1cc2cc(CN3C(=O)c4ccccc4C3=O)ccc2n1C	13.5%
O=C1/C(=C/c2cccnc2)CCc2c1[nH]c1ccccc21	1.75%
O=C(Nc1ccc(-n2cnnn2)cc1)C1CCC1	13.2%
Cc1cccc(NC(=O)c2cccc(C(=O)Nc3cccc(C)c3C)n2)c1C	18.1%
CN(C)/C=C/C(=O)c1ccccc1	-0.962%
COc1ccc(CC(=O)N/N=C/c2c(C)n(C)c3ccccc23)cc1OC	3.07%
O=C(CC1CCCCC1)N1CCC(c2nc(-c3ccc(S(=O)(=O)N4CCCC4)cc3)no2)CC1	-1.89%
CC1CC(C)CN(C(=O)COC(=O)c2c[nH]c3ccccc23)C1 (stereo not drawn)	-8.31%
CCC(C)c1ccc(NC(=O)C2CCN(c3ccc(C(F)(F)F)cn3)CC2)cc1 (stereo not drawn)	9.78%
O=C(CC1CCCC1)Nc1cc(C(F)(F)F)ccc1-n1cncn1	2.88%
O=C1Nc2ccccc2N=C(c2ccccc2)C1N1CCOCC1 (stereo not drawn)	18.1%
CCOC(=O)c1cnc2cc(-c3ccc(Br)cc3)nn2c1C	18.3%
Cc1ccc(/C=c2\sc3nc(-c4ccco4)nn3c2=O)o1	-1.26%
COc1ccc(OC)c(C(C)NC(=O)Nc2cccc(C(C)=O)c2)c1 (stereo not drawn)	11.4%
COc1ccc(COCC(O)CN2CCC(C(N)=O)CC2)cc1OC (stereo not drawn)	7.91%
Cn1c(C(=O)NCCCN2CCN(c3cccc(Cl)c3)CC2)cc2c(=O)n(C)c3ccccc3c21	11.8%
